The values below come from patent US20070015695A1 (NATIONAL JEWISH HEALTH, published 2007).

The target of this test is T1, soluble TALL-1 (sTALL-1), amino acids 134-285 of human TALL-1, His6-tagged, wild type (human, UniProt Q9Y275 fragment).
T1 construct: Expressed in E. coli; Monomers form trimers, and at pH 7.4 and above a virus-like cluster of 60 monomers (20 trimers); Immobilised as 'wild type multimeric sTALL-1' in the BIAcore assay; also called wild type sTALL-1; native sTALL-1; not shown: N-terminal His6 tag from vector pET14b
In words: co-expression, gel filtration at 100 mM to 1 M NaCl and SDS gel analysis, ratio 1:1. The method, then:
However, four lines of evidence support the present inventors' belief that the crystal structure described herein reflects the actual interactions of the complexes in solution and in vivo. First, co-expression of sTALL-1 with eBCMA or eBAFF-R generates the virus-like cluster in solution as judged by gel-filtration column and […] analysis at a ratio of 1:1 (sTALL-1: eBCMA or eBAFF-R). Different salt concentrations (from 100 mM to 1 M NaCl) produce the same elution profile, in which complexes of sTALL-1 with eBCMA or eBAFF-R elute at a void volume on superdex-200. Thus, binding between ligand and receptors is stable and insensitive to salt concentrations. Purified samples of the preformed complexes were subjected to crystallization trials. Crystals of both complexes have been obtained, however neither of them diffracted. The results further confirmed that the “flap” region of TALL-1 which is involved in clustering, is not part of the receptor binding site. […] Second, in the receptor soaked sTALL-1 crystals, all seven fully occupied receptors and one partial receptor have equivalent binding sites on sTALL-1 in the asymmetry unit, so the binding is highly specific. Third, eBCMA and eBAFF-R have a similar binding mode and occupy the same site on sTALL-1. […]
A general note: SEC sorts molecules by how far they enter the pores of the column.

T1 sequence (Q9Y275 134-285): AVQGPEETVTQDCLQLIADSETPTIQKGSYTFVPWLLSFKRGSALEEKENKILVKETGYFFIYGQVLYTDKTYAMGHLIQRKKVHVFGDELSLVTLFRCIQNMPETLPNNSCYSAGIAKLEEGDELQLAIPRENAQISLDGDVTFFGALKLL

B1: eBAFF-R, extracellular domain of BAFF-R ([…] of SEQ ID NO:8) (receptor)
chain: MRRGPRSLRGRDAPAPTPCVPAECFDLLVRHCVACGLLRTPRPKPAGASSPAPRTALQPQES
notes: Made as a GST fusion in pGEX4T-2 and cleaved with thrombin; […] are ordered in the model; also called BAFF-R/BR3 extracellular domain; soluble monomeric eBAFF-R
As to B1, the binding result is “binds”.
